Results on 44 compounds are retold here after paper PMC4336329 (PLoS ONE, 2015).

In all, about 310,000 compounds went through this assay and about 2,200 (0.71%) showed an effect of 50% or more. Effects have a minus sign here. Some of the results follow.

The target in the test is human ether-à-go-go-related gene (hERG) potassium channel (human, UniProt Q12809). The test can be described thus: primary screen, population patch clamp on CHO cells stably expressing hERG.
human ether-à-go-go-related gene (hERG) potassium channel, sequence (Q12809 whole entry, looked up): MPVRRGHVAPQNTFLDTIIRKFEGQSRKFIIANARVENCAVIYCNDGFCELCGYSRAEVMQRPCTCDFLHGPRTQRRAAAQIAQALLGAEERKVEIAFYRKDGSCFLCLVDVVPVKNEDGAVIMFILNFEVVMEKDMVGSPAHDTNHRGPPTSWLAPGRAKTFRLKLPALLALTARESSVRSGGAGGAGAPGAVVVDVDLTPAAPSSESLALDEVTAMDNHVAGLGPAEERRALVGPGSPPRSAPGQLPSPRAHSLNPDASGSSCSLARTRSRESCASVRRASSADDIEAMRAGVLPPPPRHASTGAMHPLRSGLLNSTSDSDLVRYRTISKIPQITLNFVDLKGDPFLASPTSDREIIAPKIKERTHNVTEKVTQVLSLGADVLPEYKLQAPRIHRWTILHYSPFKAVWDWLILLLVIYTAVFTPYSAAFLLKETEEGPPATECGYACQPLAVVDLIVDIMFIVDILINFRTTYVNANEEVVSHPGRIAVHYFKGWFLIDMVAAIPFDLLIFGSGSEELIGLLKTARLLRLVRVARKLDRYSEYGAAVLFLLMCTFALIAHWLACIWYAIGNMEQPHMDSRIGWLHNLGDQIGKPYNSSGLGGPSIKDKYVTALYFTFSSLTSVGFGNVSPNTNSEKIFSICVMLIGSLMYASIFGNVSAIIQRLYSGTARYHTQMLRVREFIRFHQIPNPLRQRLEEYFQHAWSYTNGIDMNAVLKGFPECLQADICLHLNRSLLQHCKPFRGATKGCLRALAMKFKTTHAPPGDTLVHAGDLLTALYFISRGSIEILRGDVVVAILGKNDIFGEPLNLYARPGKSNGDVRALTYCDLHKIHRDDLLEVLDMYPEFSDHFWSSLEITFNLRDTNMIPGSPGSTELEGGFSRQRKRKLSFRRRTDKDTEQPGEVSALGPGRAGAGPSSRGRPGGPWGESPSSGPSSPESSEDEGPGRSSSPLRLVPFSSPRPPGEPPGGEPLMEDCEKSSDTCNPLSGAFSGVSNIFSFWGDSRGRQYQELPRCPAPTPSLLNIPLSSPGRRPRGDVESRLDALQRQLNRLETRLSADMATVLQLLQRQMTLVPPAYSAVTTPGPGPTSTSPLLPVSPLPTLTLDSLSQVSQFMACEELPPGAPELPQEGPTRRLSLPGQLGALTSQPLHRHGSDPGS
For `COc1ccc(N2CCN(C(=O)C(=O)c3cn(CC(=O)N4CCOCC4)c4ccccc34)CC2)cc1`, the “hERG current change (%, negative = inhibition) at 1uM” value is given as -0.408%.
The figure for `Cc1cc(C)nc(SC2CC(=O)N(c3ccc(Cl)cc3)C2=O)n1` (centres unmarked) is 2.32%; for `Brc1ccc2[nH]c3c(N4CCc5ccccc5C4)ncnc3c2c1` it is 8.07%; for `CN1C2CCC1/C(=C\c1ccccc1)C(=O)/C2=C\c1ccccc1` it is 9.24%.
The figure for `O=C(CSc1nc2c(cnn2-c2ccccc2)c(=O)[nH]1)N1N=C(c2cccs2)CC1c1ccc(F)cc1` (centres unmarked) is 13.9%; for `COc1cc(C2C(C(=O)c3ccco3)=C(O)C(=O)N2CCc2ccccc2)ccc1O` (centres unmarked) it is 11.4%; for `Cc1cc(C(=O)COC(=O)CNC(=O)c2ccco2)c(C)n1Cc1ccco1` it is 10.3%.
For `O=S1(=O)CCN(OCc2ccc(Cl)cc2)CC1`, the “hERG current change (%, negative = inhibition) at 1uM” value is reported as 8.98%.
As to `CCn1c(NC(=S)Nc2ccccc2)nc2ccccc21`, the “hERG current change (%, negative = inhibition) at 1uM” value turned out to be 9.97%.
To `Cc1cccc(OCC(=O)Nc2ccc3nc(C)sc3c2)c1` belongs 14.1%.
To `CC1CCCC(C)N1C(=O)COC(=O)Cc1ccc(F)cc1` (centres unmarked) belongs 22.5%; to `CN(CCC1CCCCO1)Cc1cn(C)nc1-c1ccc2c(c1)OCCO2` (centres unmarked), 14.1%; to `CCOc1ccc(NC(=S)N2CCC(c3nc4ccccc4[nH]3)CC2)cc1`, -0.321%.
To `Cc1cc(C)c(N=Cc2c(O)n(-c3nccs3)c(=O)c3ccccc23)c(C)c1` belongs -2.68%; to `CC(Oc1ccccc1)C(=O)NNC(=O)c1ccccn1` (centres unmarked), -0.816%.
As for `COc1ccc(C(=O)c2ccccc2)cc1`, the “hERG current change (%, negative = inhibition) at 1uM” value turned out to be 12.5%.
Turning to `CC(C)(C)NC(=O)C(c1ccco1)N(Cc1ccc2c(c1)OCO2)C(=O)c1snc(C(N)=O)c1N` (centres unmarked), the “hERG current change (%, negative = inhibition) at 1uM” value is 9.28%.
For the compound `CCOc1ccc(C(c2c(C)[nH][nH]c2=O)c2c(C)[nH][nH]c2=O)cc1OCC`, the “hERG current change (%, negative = inhibition) at 1uM” value is on record as 4.24%.
To `OCc1nc2ccccc2n1Cc1c(F)cccc1Cl` belongs 5.54%; to `COC(=O)c1ccc(COc2cc(O)c3c(c2)OC(C)(C)CC3=O)cc1`, 9.66%; to `O=C(O)c1c(NC(=O)N(CCO)Cc2ccccc2)sc2c1CCCC2`, 12.9%.
The figure for `CC(=O)c1ccc(N2CCN(C(=O)CCc3ccccc3)CC2)cc1` is -5.53%; for `CCOC(=O)C1CCCN(S(=O)(=O)c2ccc(Br)s2)C1` (centres unmarked) it is 0.414%; for `O=C(Nc1ccc2c(c1)OCO2)c1ccc[n+]([O-])c1` it is 24.4%.
The figure for `Cc1ccc(S(=O)(=O)N2[C@@H](c3ccc(F)cc3)C(C(=O)O)=CC[C@H]2c2ccc3c(c2)OCO3)cc1` is 8.19%; for `CN(C)C(=S)NC(=O)C12CC3CC(C)(CC(C)(C3)C1)C2` it is 11.5%; for `O=C(CC1C(=O)NCCN1Cc1cccc(F)c1F)NCCCC1CCCC1` (centres unmarked) it is 11.5%.
With `Cc1cc(C)c(C)c(OCCOCCNCc2ccccc2)c1.O=C(O)C(=O)O`, the “hERG current change (%, negative = inhibition) at 1uM” value was -0.588%.
Regarding `CCCc1ccc(S(=O)(=O)NCC2CCCN2CC)cc1` (centres unmarked), the “hERG current change (%, negative = inhibition) at 1uM” value is given as -7.03%.
The figure for `Cc1ccc(NC(=O)c2ccccc2NC(=O)CCC(=O)O)cc1` is 6.21%; for `Cc1ccc(NC(=O)c2cccc3ccccc23)cc1` it is 11.9%.
The figure for `CCS(=O)(=O)N1CCC(C(=O)N2CCC3(CC2)OCCO3)CC1` is 9.99%; for `Cc1cc(C)n(-c2nc(NCC(C)O)c3c4c(sc3n2)COC(C)(C)C4)n1` (centres unmarked) it is 14.2%.
To `Cn1nc(NC(=O)C(C)(C)C)c2c(F)cccc21` belongs 3.94%; to `COc1cccc2cc(C(=O)N3CCN(c4ccccn4)CC3)c(=O)oc12`, 11.8%; to `CCOc1ccc2c(c1)OC(c1ccc(C)cc1)(C(F)(F)F)NC2=O` (centres unmarked), 11.9%.
As to `CC(CCc1ccco1)NC(=O)CCc1nnc2ccc(NCc3ccccc3)nn12` (centres unmarked), the “hERG current change (%, negative = inhibition) at 1uM” value is given as 11.8%.
The figure for `COc1cccc(NC(=O)COc2cccc(-n3cnnn3)c2)c1` is -22.8%; for `Cn1c(CNC(=O)c2ccccc2F)nnc1SCc1nc2ccccc2c(=O)[nH]1` it is -1.67%.
The figure for `CC(=O)Oc1ccc2oc(C)c(C(=O)N3CCOCC3)c2c1` is 4.52%; for `CCOc1ccccc1OCC(=O)OCC(=O)Nc1ncc(Cl)cc1Cl` it is 7.2%; for `COCCn1c(=NC(=O)c2ccc(S(=O)(=O)N3CCc4ccccc4C3)cc2)sc2cc(OC)ccc21` it is 7.57%.
The figure for `CCc1cc(C(=O)NCC(C)(C)N2CCOCC2)sc1C` is 17%; for `COc1ccccc1-c1nnc(SCC(=O)NNC(=O)c2ccccc2F)n1C` it is 4.38%.
